# Test results: PubChem BioAssay (NCATS)
# Inconclusive results, whose numbers are uncertain, are shown with a selection of clear calls. For some assays here: Potencies of inconclusive entries are doubtful fits and often do not repeat. Activity calls are given as the source filed them. Unless noted, calls follow the shape of the dose curve; as a rule, active = well fitted curve in either direction with a large enough effect (not every such curve was filed as active); inconclusive = small, poorly fitted or top-dose-only effect, or another doubt; inactive = flat fitted curve, though single readings scatter.
# Legend:
# [1] = NFAT Signaling Pathway (AID 444); settings: Jurkat NFAT-bla M1, carbachol, beta-lactamase ratio, 5 h; at 17.2 µM (top of the series) unless noted;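 also: carbachol stimulus at about its EC50 of 1 µM final; % is scaled to controls: 0 for no effect and ±100 for the full control effect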
# In short: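 Read-out: CCF4 FRET ratio (460 nm/530 nm) after 1 h RT dye loading, used for %activity and AC50 from titration series. Cells: Jurkat NFAT-β-lactamase/M1 line, treated with compound plus 1 uM carbachol for 5 h, 37 °C.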
# [2] = biological target: 3',5'-cyclic-AMP phosphodiesterase 4B (Homo sapiens) (UniProt Q07343); assay: qHTS Assay for Inhibitors of PDE-IV (AID 607; active = well fitted activation curve with a large enough effect in the main read-out, with a control signal flat, not every such curve was filed as active; inconclusive = small, poorly fitted or top-dose-only effect, or effect the other way, or a change in a side signal; also: potency is read from the fitted curve at half-maximal effect; as to activation (PDE inhibition): % of control where 0% means no effect); settings: HEK293 ACTOne CNG channel cells, membrane potential fluorescence; activation (PDE inhibition): at 22.9 µM (top of the series)
# Sequence of UniProt Q07343 (Q07343 whole entry, looked up): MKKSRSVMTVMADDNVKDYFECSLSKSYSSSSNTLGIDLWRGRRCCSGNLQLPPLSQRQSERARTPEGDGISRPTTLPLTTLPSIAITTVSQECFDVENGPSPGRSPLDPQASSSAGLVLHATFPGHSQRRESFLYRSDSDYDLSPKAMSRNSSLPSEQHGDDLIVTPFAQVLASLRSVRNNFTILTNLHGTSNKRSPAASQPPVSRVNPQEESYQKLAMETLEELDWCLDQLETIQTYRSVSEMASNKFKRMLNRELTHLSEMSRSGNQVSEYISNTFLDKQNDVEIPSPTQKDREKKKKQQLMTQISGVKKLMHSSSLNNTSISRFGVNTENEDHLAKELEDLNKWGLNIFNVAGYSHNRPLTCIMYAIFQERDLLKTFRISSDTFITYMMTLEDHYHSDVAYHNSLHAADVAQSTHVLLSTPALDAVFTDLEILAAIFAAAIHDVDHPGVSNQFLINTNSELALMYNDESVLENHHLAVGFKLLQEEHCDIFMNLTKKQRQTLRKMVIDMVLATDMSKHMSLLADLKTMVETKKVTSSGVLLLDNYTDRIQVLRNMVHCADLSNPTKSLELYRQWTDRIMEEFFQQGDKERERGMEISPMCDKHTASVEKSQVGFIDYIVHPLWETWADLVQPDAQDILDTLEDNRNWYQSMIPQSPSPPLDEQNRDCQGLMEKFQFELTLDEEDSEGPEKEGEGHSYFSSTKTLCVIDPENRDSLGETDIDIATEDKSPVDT
# In short: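 ACTOne HEK293 cells carry a modified cAMP-gated CNG channel and express endogenous PDE4; plated 1000 cells/well, compounds up to 22.9 uM final. Membrane-potential dye fluorescence (ex 535/em 590) was read; parental cells received 10 uM forskolin + 100 uM RO 20-1724.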
# [3] = biological target: Cytochrome P450 2D6 (Homo sapiens) (UniProt P10635); assay: qHTS Assay for Inhibitors and Substrates of Cytochrome P450 2D6 (AID 891; active = well fitted curve in the direction sought with a large enough effect; inconclusive = small, poorly fitted or top-dose-only effect, or another doubt; inactive = no such curve, though single readings can be large; an effect the other way counts as inactive or inconclusive;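 also: luciferin methyl ether substrate demethylated by CYP2D6 with NADPH regeneration; potency is read from the fitted curve at half-maximal effect; nearly all actives have a fitted effect of over 60% in size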); settings: recombinant CYP2D6, luciferin-ME EGE luminescence; activity change, negative = inhibition: at 57.1 µM (top of the series)
# Sequence of UniProt P10635 (P10635 whole entry, looked up): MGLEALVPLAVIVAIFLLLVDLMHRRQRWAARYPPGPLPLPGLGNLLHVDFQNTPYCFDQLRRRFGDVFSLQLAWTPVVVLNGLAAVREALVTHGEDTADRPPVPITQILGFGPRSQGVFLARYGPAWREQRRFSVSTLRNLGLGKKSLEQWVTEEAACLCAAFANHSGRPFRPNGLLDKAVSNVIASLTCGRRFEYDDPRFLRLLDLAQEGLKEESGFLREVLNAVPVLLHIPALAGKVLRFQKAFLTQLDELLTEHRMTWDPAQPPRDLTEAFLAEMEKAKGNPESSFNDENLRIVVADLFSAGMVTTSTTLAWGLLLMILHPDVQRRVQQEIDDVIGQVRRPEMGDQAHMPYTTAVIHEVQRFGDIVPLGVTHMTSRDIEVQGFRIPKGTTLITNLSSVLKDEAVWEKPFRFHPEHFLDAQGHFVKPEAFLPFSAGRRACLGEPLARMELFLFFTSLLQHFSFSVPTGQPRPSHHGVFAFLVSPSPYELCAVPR
# In short: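 Luminescent read-out of luciferin formed by 5 nM human CYP2D6 demethylating 30 uM Luciferin-ME EGE (Km level) over 60 min at room temperature after NADPH regeneration addition. Data normalized to full inhibition by 1.43 uM quinidine.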
# [4] = qHTS Assay for Identification of Small Molecule Agonists for Hypoxia Response Element Signaling Pathway (AID 914; active = well fitted activation curve with a large enough effect in the signal ratio, with a control signal flat, not every such curve was filed as active; inconclusive = small, poorly fitted or top-dose-only effect, or effect the other way, or a change in a side signal; the % refers to the signal ratio; also: top concentration of the series differs between compounds; % of control where 0% means no effect); settings: ME-180 (cervical carcinoma) HRE-bla reporter, beta-lactamase ratio, CoCl2, 17 h; activation: hits give high values
# In short: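 HRE-bla ME-180 cells with beta-lactamase reporter under hypoxia response element, compounds with EC50 CoCl2 for 17 hours at 37 C. CCF4 substrate, 460nm/530nm emission ratio gave %Activity; AC50 from titration series.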
# [5] = biological target: Cytochrome P450 2C9 (Homo sapiens) (UniProt P11712); assay: qHTS Assay for Inhibitors and Substrates of Cytochrome P450 2C9 (AID 883; active = well fitted curve in the direction sought with a large enough effect; inconclusive = small, poorly fitted or top-dose-only effect, or another doubt; inactive = no such curve, though single readings can be large; an effect the other way counts as inactive or inconclusive; also: potency is read from the fitted curve at half-maximal effect; nearly all actives have a fitted effect of over 60% in size); settings: recombinant CYP2C9, luciferin-H luminescence, 60 min; activity change, negative = inhibition: at 57.1 µM (top of the series)
# Sequence of UniProt P11712 (P11712 whole entry, looked up): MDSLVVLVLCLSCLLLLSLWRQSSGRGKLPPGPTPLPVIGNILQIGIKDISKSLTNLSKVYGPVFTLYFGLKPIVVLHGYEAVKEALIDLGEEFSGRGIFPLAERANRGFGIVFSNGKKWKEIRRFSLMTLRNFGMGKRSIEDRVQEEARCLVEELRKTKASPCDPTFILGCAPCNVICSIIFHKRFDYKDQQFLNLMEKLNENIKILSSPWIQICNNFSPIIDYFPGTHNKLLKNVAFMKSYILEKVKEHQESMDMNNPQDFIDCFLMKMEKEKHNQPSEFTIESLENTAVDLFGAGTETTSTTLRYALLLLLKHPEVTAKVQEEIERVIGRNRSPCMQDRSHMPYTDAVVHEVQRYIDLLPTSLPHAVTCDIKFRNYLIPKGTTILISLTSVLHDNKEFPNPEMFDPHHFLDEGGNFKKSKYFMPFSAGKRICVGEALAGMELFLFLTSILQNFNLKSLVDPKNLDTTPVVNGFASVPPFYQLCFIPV
# In short: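 Luminescent read-out of deoxyluciferin hydroxylation, normalized to 57uM sulphaphenazole (AC100). Reaction: 10nM enzyme, 100uM Luciferin-H (equal to KM), 25mM KPO4, 10 min compound preincubation, then 60 min with NADPH regeneration, both at 37C.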
# [6] = biological target: Cytochrome P450 3A4 (Homo sapiens) (UniProt P08684); assay: qHTS Assay for Inhibitors and Substrates of Cytochrome P450 3A4 (AID 884; active = well fitted curve in the direction sought with a large enough effect; inconclusive = small, poorly fitted or top-dose-only effect, or another doubt; inactive = no such curve, though single readings can be large; an effect the other way counts as inactive or inconclusive; also: potency is read from the fitted curve at half-maximal effect; nearly all actives have a fitted effect of over 50% in size)
# Sequence of UniProt P08684 (P08684 whole entry, looked up): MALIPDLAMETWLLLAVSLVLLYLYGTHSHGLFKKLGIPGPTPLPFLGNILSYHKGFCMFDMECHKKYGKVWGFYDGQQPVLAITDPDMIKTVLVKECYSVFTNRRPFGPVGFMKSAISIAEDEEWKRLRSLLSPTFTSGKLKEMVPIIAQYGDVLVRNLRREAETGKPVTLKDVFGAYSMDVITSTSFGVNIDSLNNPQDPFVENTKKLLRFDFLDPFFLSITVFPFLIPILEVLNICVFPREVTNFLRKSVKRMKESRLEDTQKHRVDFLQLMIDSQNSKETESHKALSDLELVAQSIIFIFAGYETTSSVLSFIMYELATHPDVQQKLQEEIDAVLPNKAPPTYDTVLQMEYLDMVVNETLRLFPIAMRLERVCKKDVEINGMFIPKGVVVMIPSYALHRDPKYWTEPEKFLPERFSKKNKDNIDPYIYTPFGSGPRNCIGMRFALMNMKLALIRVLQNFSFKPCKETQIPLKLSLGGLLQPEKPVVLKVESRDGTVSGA
# In short: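 Luminescent readout of luciferin produced by CYP3A4 (20 nM) dealkylation of Luciferin-PPXE, 25 uM (its KM). NADPH-driven reaction ran 60 min at RT after 10 min compound preincubation; data scaled to 57 uM ketoconazole as 100% inhibition.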
# [7] = biological target: Cytochrome P450 2C19 (Homo sapiens) (UniProt P33261); assay: qHTS Assay for Inhibitors and Substrates of Cytochrome P450 2C19 (AID 899; active = well fitted curve in the direction sought with a large enough effect; inconclusive = small, poorly fitted or top-dose-only effect, or another doubt; inactive = no such curve, though single readings can be large; an effect the other way counts as inactive or inconclusive; also: potency is read from the fitted curve at half-maximal effect; nearly all actives have a fitted effect of over 60% in size)
# Sequence of UniProt P33261 (P33261 whole entry, looked up): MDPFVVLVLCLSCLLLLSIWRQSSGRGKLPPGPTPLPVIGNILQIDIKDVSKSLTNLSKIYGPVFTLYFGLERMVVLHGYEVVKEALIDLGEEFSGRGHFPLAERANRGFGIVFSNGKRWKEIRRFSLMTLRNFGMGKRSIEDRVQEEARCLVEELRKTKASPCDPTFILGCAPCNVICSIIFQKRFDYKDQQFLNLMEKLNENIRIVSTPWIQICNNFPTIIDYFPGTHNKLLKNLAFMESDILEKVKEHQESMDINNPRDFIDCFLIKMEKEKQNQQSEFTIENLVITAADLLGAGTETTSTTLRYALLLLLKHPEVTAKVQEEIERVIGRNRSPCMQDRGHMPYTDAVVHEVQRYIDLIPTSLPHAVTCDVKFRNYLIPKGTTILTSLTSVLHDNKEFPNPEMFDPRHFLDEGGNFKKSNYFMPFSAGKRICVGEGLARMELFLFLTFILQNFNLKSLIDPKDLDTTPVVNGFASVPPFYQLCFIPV
# In short: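 Luminescence readout of luciferin formed from 10uM Luciferin-H EGE (KM level) by 5 nM CYP2C19 in 50mM KPO4. 60 min NADPH-driven reaction at 37C after 10 min compound preincubation; data scaled to 57uM ketoconazole inhibition.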
# [8] = biological target: Bifunctional 3'-5' exonuclease/ATP-dependent helicase WRN (Homo sapiens) (UniProt Q14191); assay: qHTS for Inhibitors of WRN Helicase: Confirmatory Assay for Cherry-picked Compounds. (AID 720497; active = well fitted curve in the direction sought with a large enough effect; inconclusive = small, poorly fitted or top-dose-only effect, or another doubt; inactive = no such curve, though single readings can be large; an effect the other way counts as inactive or inconclusive; also: potency is read from the fitted curve at half-maximal effect; nearly all actives have a fitted effect of over 65% in size)
# Sequence of UniProt Q14191 (Q14191 whole entry, looked up): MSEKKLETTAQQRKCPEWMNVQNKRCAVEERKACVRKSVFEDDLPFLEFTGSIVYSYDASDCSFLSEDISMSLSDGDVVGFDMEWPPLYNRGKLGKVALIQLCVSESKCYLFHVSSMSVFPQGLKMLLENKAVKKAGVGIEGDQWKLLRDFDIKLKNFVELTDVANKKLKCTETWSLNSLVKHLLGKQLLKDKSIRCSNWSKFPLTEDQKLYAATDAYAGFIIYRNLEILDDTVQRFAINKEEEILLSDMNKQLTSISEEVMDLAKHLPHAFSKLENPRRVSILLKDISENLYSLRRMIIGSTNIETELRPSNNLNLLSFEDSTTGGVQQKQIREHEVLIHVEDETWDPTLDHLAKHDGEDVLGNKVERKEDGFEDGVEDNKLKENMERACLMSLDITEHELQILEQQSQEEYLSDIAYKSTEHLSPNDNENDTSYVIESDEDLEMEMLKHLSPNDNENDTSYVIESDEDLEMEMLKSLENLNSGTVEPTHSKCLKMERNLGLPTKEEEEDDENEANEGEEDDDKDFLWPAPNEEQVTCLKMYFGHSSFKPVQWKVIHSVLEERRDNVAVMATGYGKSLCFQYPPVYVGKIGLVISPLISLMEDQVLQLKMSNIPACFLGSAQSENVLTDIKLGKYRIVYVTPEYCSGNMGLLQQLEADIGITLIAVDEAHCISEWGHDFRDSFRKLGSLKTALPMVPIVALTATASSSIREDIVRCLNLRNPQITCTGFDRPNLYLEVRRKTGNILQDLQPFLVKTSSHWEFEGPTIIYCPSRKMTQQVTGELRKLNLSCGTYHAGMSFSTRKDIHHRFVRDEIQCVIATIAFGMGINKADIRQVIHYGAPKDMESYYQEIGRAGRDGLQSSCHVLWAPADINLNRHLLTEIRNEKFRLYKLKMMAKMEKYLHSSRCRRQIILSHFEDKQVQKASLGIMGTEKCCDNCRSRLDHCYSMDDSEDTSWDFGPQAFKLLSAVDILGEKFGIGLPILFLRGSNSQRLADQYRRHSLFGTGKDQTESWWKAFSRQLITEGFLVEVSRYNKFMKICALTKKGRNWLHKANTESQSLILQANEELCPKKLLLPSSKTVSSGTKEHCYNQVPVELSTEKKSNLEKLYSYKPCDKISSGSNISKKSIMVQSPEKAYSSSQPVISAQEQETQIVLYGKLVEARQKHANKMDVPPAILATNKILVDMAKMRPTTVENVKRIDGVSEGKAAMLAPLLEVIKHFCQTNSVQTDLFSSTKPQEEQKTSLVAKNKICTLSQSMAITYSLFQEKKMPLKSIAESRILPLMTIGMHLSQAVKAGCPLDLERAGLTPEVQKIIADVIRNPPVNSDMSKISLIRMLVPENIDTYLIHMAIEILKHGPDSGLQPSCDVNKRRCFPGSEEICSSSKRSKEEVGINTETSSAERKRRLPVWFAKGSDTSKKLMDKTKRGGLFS
# In short: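 WRN at 20 nM final was preincubated with compound for 15 min at room temperature; the reaction was started with 100 nM forked duplex oligonucleotide and 2 mM ATP (final). Red fluorescence (ex 525/em 598 nm) was read kinetically, with inhibition normalized to enzyme-only and buffer-only wells.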
# [9] = qHTS Assay for Identification of Small Molecule Antagonists for NFkB Signaling Pathway (AID 895; active = well fitted inhibition curve with a large enough effect in the signal ratio, with a control signal flat, not every such curve was filed as active; inconclusive = small, poorly fitted or top-dose-only effect, or effect the other way, or a change in a side signal; the % refers to the signal ratio; also: potency is read from the fitted curve at half-maximal effect); settings: NFkB beta-lactamase reporter cells, FRET ratio 460/530, stimulated with 10 pM TNF alpha; activity change, negative = inhibition: at 38.3 µM (top of the series)
# In short: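 Beta-lactamase reporter read-out (460 and 530 nm emission ratio, 405 nm excitation, 2 hrs substrate loading RT) after 5 hr stimulation with 10 pM TNF alpha in compound-treated NFkB-bla ME-180 cells in low-serum medium.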
# [10] = qHTS Assay for Identification of Small Molecule Agonists for Thrombopoietin (TPO) Signaling Pathway (AID 917; active = well fitted curve in the direction sought with a large enough effect; inconclusive = small, poorly fitted or top-dose-only effect, or another doubt; inactive = no such curve, though single readings can be large; an effect the other way counts as inactive or inconclusive; also: potency is read from the fitted curve at half-maximal effect); settings: TPO signaling pathway reporter cells, agonist qHTS, stimulated with TPO at its EC50; activity, positive = activation: at 38.5 µM (top of the series)
# In short: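 First, Ba/F3 cells with human TPO receptor were held overnight without IL-3. Next, compounds and TPO (26 pM final) were added. After 24 hrs at 37 C, luciferase detection reagent was added and luminescence measured following 10 min at room temperature.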
# [11] = biological target: Muscarinic acetylcholine receptor M1 (Rattus norvegicus) (UniProt P08482); assay: qHTS Assay for Antagonists of Acetylcholine Muscarinic M1 Receptor: Kinetic Measurement of Intracellular Calcium Response (AID 943; active = well fitted curve in the direction sought with a large enough effect; inconclusive = small, poorly fitted or top-dose-only effect, or another doubt; inactive = no such curve, though single readings can be large; an effect the other way counts as inactive or inconclusive; also: potency is read from the fitted curve at half-maximal effect; nearly all actives have a fitted effect of over 75% in size)
# Sequence of UniProt P08482 (P08482 whole entry, looked up): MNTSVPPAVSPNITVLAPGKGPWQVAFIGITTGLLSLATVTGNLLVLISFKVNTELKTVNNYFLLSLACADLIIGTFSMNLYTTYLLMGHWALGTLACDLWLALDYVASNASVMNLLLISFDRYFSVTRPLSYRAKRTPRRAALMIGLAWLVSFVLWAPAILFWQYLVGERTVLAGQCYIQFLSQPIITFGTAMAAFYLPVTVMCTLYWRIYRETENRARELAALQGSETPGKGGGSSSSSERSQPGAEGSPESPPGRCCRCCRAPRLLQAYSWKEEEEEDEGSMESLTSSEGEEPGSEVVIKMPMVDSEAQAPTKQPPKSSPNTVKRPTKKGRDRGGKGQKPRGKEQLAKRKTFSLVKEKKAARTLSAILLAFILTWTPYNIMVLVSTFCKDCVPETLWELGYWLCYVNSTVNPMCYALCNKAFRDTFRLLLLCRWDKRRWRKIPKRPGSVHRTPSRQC
# In short: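 Antagonism measured as reduction of carbachol-evoked (EC80, 100 nM final) calcium flux in rat M1-CHO cells after 10 min compound exposure. Fluo-4 signal read kinetically; ratio of maximal to basal fluorescence.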
# [12] = biological target: Muscarinic acetylcholine receptor M1 (Rattus norvegicus) (UniProt P08482); assay: qHTS Assay for Antagonists of Acetylcholine Muscarinic M1 Receptor: Measurement of IP-One Response (AID 944; active = well fitted curve in the direction sought with a large enough effect; inconclusive = small, poorly fitted or top-dose-only effect, or another doubt; inactive = no such curve, though single readings can be large; an effect the other way counts as inactive or inconclusive; also: potency is read from the fitted curve at half-maximal effect; nearly all actives have a fitted effect of over 75% in size)
# Tags tell the direction and shape of the fitted curve or compound fluorescence and quenching.
smiles,measurement,setting,value
CC(C)(C)C1CCC2(CC1)CCN(CCCN1CCOCC1)CC2,"activity change, negative = inhibition",[1],inconclusive: -64.6% [inhibitor] [at 7.69 µM]
same,Potency,[2],"inconclusive: 1 µM [rising, full curve, poor fit]"
same,Potency,[3],"inconclusive: 3.98 µM [inhibitor, partial curve]"
same,activation,[4],inconclusive: 19.5%
COc1ccccc1CN1CC2(CCN(C(=O)c3cc(C(F)(F)F)cc(C(F)(F)F)c3)CC2)C1,"activity change, negative = inhibition",[1],inconclusive: -36.6% [inhibitor] [at 7.69 µM]
same,Potency,[2],"inconclusive: 12.6 µM [rising, single point]"
Cn1cccc1C(=O)N1CCC2(CC1)CN(Cc1ccc(C#N)cc1)C2,"activity change, negative = inhibition",[1],inconclusive: -54.7% [inhibitor] [at 7.69 µM]
same,Potency,[2],inactive
C[C@H](CCC(=O)O)[C@H]1CC[C@@H]2[C@H]3[C@@H](CC[C@@]21C)[C@]1(C)CC[C@H](O)C[C@@H]1C[C@@H]3O,"activity change, negative = inhibition",[1],inactive: -6.74%
same,Potency,[2],inactive
CC(C)C12CC[C@@]3(CC[C@H]4[C@@](C)(CCC[C@]4(C)C(=O)O)[C@@H]3C1)[C@@H](CN)C2,"activity change, negative = inhibition",[1],inconclusive: 31% [activator] [at 7.69 µM]
same,Potency,[2],inactive
same,Potency,[5],"inconclusive: 1.26 µM [inhibitor, partial curve, poor fit]"
O=C(c1cnccn1)N1CCC[C@@]2(CCN(Cc3ccncc3)C2)C1,"activity change, negative = inhibition",[1],inactive: 7.13% [at 7.69 µM]
same,Potency,[2],inactive
c1ccc(-c2cccc(N3CCC4(CCNCC4)CC3)c2)cc1,"activity change, negative = inhibition",[1],inconclusive: 35.3% [activator] [at 7.69 µM]
same,Potency,[2],inactive
O=C(c1ccco1)N1CCC2(CCCN(c3ccccn3)C2)CC1,"activity change, negative = inhibition",[1],inconclusive: -58.9% [inhibitor] [at 7.69 µM]
same,Potency,[2],inactive
CCN(Cc1cc(Cl)cc(C)c1O)Cc1c(O)ccc2ccccc12,"activity change, negative = inhibition",[1],inconclusive: -30.4% [inhibitor] [at 7.69 µM]
same,Potency,[2],inactive
same,Potency,[5],"inconclusive: 5.01 µM [inhibitor, single point]"
COc1ccc(-n2c(=O)c(-c3cccs3)nc3cnc(OC)nc32)cc1,"activity change, negative = inhibition",[1],inactive: -2.37% [at 7.69 µM]
same,Potency,[2],"inconclusive: 10 µM [activator, single point]"
C[C@H]1[C@@H](O)[C@@H](C)\C=C/C=C\C=C/C=C\C=C/C=C\C=C/[C@@H](O[C@H]2O[C@@H](C)[C@@H](O)[C@@H](N)[C@@H]2O)C[C@@H]2O[C@](O)(C[C@@H](O)C[C@@H](O)[C@@H](O)CC[C@@H](O)C[C@@H](O)CC(=O)O[C@H]1C)C[C@@H](O)[C@H]2C(=O)O (stereo in doubt),"activity change, negative = inhibition",[1],inactive: -11.5%
same,Potency,[2],inactive
O=C1C=CC(=Nc2cccc3c(N=C4C=CC(=O)O4)cccc23)O1,"activity change, negative = inhibition",[1],inconclusive: -48.3% [inhibitor] [at 7.69 µM]
same,Potency,[2],inactive
same,Potency,[5],"inconclusive: 6.31 µM [inhibitor, single point]"
CN1CCCN([C@@H](c2ccccc2)c2ccc(Cl)cc2)CC1,"activity change, negative = inhibition",[1],inconclusive: -50.5% [inhibitor]
same,Potency,[2],"inconclusive: 9.51 µM [activator, partial curve]"
N#CNC(N)=Nc1ccc(Cl)cc1,"activity change, negative = inhibition",[1],inactive: 2.31% [at 7.69 µM]
same,Potency,[2],inactive
Cn1ncc2c(Nc3cccc(Cl)c3)nc(Nc3cccc(Cl)c3)nc21,"activity change, negative = inhibition",[1],inconclusive: -47.2% [inhibitor] [at 7.69 µM]
same,Potency,[5],"inconclusive: 7.94 µM [inhibitor, single point]"
same,Potency,[6],"inconclusive: 6.31 µM [inhibitor, partial curve]"
same,Potency,[7],"inconclusive: 3.16 µM [inhibitor, single point]"
C[C@H](NC(=O)c1ccc(Cl)c(Cl)c1)c1ccc(-c2ccccc2)cc1,"activity change, negative = inhibition",[1],inconclusive: -36.1% [inhibitor] [at 7.69 µM]
same,Potency,[5],"inconclusive: 3.16 µM [inhibitor, single point]"
O=S(=O)(c1ccccc1)N1CCC2(CCN(Cc3ccccc3)CC2)CC1,"activity change, negative = inhibition",[1],inconclusive: -62% [inhibitor] [at 7.69 µM]
same,Potency,[2],inactive
same,activation,[4],inactive: 14.1%
O=C(O)C[C@H](Sc1ccccc1)c1ccccc1,"activity change, negative = inhibition",[1],inactive: 8.06% [at 7.69 µM]
same,Potency,[2],inactive
same,activation,[4],inactive: -1.84%
CN(Cc1cc(Cl)cc(Cl)c1O)Cc1c(O)ccc2ccccc12,"activity change, negative = inhibition",[1],inactive: -4.41% [at 7.69 µM]
same,Potency,[5],"inconclusive: 3.16 µM [inhibitor, single point]"
O=C(c1ccc(=O)oc1)N1CCOCC1,"activity change, negative = inhibition",[1],inconclusive: -52.2% [inhibitor]
same,activation,[4],inactive: 5.28%
same,Potency,[8],active: 5.41 µM
CCCN(CCc1ccccc1)[C@H]1CCc2c(O)cccc2C1,"activity change, negative = inhibition",[1],inconclusive: -69.8% [inhibitor] [at 38 µM]
same,Potency,[2],"inconclusive: 15.8 µM [activator, partial curve]"
same,Potency,[9],"inconclusive: 22.4 µM [inhibitor, single point]"
same,Potency,[10],"inconclusive: 3.98 µM [inhibitor, full curve, poor fit]"
same,Potency,[11],active: 0.501 µM
same,Potency,[12],active: 2.82 µM
